According to the supplement of paper PMC4466236:
Whole data set: some 33,000 sequences, median “E-score (dimensionless, -0.5 to 0.5)” near -0.058, cut for the highest 2% near 0.35. This is one part of the list.

test system: MvaT; experiment: PBM 8-mer E-score (mean of HK and ME arrays) (E-score (dimensionless, -0.5 to 0.5)); higher = stronger relative binding preference; most listed sequences are background and not binding sites
Procedure: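 Protein binding microarray: GST-tagged full-length MvaT (P. aeruginosa PAO1) bound to two universal double-stranded 60-mer arrays (ME and HK), each with a constant 25-mer primer and a variable 35-mer region covering all 8-mers. The 8-mer E-score (rank-based, range -0.5 to 0.5, >0.45 = specific binding) is the mean of the two arrays.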

Sequence	PBM 8-mer E-score
AAGAATTG	-0.0115
TGAGCCAA	-0.318
GACACACC	-0.0993
CTATGCAC	0.0725
ACGCTAGC	-0.157
ATGGGAGC	-0.25
TAGCCATA	0.0758
GCTAGAAA	0.0651
CTCACACA	-0.0758
GAATGTCA	-0.014
CCAGACCA	-0.225
AGAATTAC	0.282
GGTAGACA	-0.0528
ATCTCTTA	0.144
CTGCTGCC	-0.132
AAGCAGCT	-0.177
AGAGTCCC	-0.105
ATGTGCAC	-0.0183
GTGGAGTA	0.0449
ACGTCTCG	-0.206
CATTAATA	0.369
AATAGAGA	0.217
GCATAGAA	-0.00205
CAAGCGAG	-0.22
CATCCCCA	-0.229

Sequence	PBM 8-mer E-score
ACGAACGG	-0.25
CCGCGCGC	-0.161
AACCGTGG	0.0669
ACCCAGTA	-0.0124
AAACTCGG	-0.0569
ACCTCCTG	-0.344
ACCCTGGG	-0.267
CATCAGCC	-0.216
GATCAAGA	-0.0768
AATGAAAC	0.172
AACGCGGG	-0.165
CACCGAGG	-0.213
CATGATCA	-0.141
TAAGAGTA	0.249
CCAGAGGC	-0.282
CTGCATTA	0.194
GGACTGGA	-0.181
AGGCTATA	-0.0511
ACCTGGGG	-0.366
CCGCTTAA	0.141
CGACGCCC	-0.293
AGACGCCA	-0.205
GCGATCCA	-0.191
TACCTTCA	-0.219
CCAGCCAG	-0.264

Sequence	PBM 8-mer E-score
AGATATTA	0.412
ACAGATTC	-0.0147
GCACCGCA	-0.128
AAAGAGTC	0.0357
AAGTGTCT	0.172
ATTTACAG	0.275
GCCGCCCC	-0.343
ATCGGCAA	-0.133
ACTGCAGC	-0.0667
ACCGCCAC	-0.0465
AAGGAATT	0.096
TGTCGACA	-0.108
AGGTGAAG	-0.152
GTACATAA	0.297
ACAGCGTG	-0.158
ACTTGGTG	-0.00701
CCGGTGTC	-0.0168
AGAGAACT	-0.046
CAAGTCGA	-0.225
AGCCCGAA	-0.22
CGCACGAA	0.0361
GACTTCAA	0.0947
ACTCGGAT	0.00133
GGTTTATA	0.242
GATCGTCA	-0.124

Sequence	PBM 8-mer E-score
AAGAGCAG	-0.0732
ACCACTGC	-0.0902
AGGACGCA	-0.148
CCCCGCGG	-0.282
GGTCGCTA	-0.19
AAGCTATG	-0.163
TCGCTCCA	-0.196
GCACAACA	0.139
CAACCAGG	-0.17
AAGTTATG	0.349
ATCTACGA	-0.0713
ACTGGGAA	-0.0942
GAAGTATC	0.0721
ACGTGAGT	-0.244
ACCTATAT	0.301
TACGACCA	-0.171
AGAGCACA	-0.00958
CCGGTAGA	-0.0881
AATCGCTC	-0.0326
GCACGAGA	-0.211
GCCGGTTA	-0.0226
AGCTCCAG	-0.147
CCGCGATA	0.146
CATTTTAA	0.176
CCATCGGC	-0.331

Sequence	PBM 8-mer E-score
CTCTTCAC	-0.188
AATAATCA	0.259
GCTTTTGA	0.0712
CATCATGG	-0.198
CAATTAGA	0.202
CACGTGAC	-0.13
GTTACGTA	0.0162
CATAGAAA	0.0586
ATGCAGGA	0.0212
GCTAGACC	-0.255
CAGCGACG	-0.218
AGCGATCC	-0.318
GCTCTGGA	-0.255
AGCTCCCT	-0.258
AACGATGT	0.0302
CAGGCATG	-0.203
CCACACAG	-0.0107
ATACATAA	0.336
GCCATATA	0.252
CGCAAGAC	-0.0404
GCGGGATA	0.052
AGGAGACG	-0.326
ACGGAGGG	-0.318
CCTGTACA	-0.0494
AGTTACCA	0.0856

Sequence	PBM 8-mer E-score
AGCATGGC	-0.286
CATGTGCA	-0.0963
CCAATTCA	-0.0716
CTTAAGTA	0.263
GGTAAATA	0.254
CGTGTTTC	-0.141
TCGCCGAA	-0.0535
TCCTCCGA	-0.337
ATATCAGA	0.253
GTAGATAA	0.201
ATTCTCTA	0.149
CCAGATGC	-0.318
GACGCCCC	-0.319
TAAGTCCA	0.102
ACACAAGT	0.178
CCAAAGAC	-0.0607
AAGCGTAG	-0.0582
AATGAGAT	0.0638
ATAACCAG	0.157
ATCGCCAG	-0.0593
TACTGTGA	0.147
CTCGGGAC	-0.238
ACTGGGCG	-0.162
ACGGTGCA	-0.128
CAAGTGCC	-0.186

Sequence	PBM 8-mer E-score
ACGTTGTA	0.0394
GGGACACC	-0.281
AGCAATCC	-0.0831
ACCGATAG	-0.0239
CCGGACCG	-0.222
TACAAAGA	0.216
GCTTGAAC	-0.0741
CATCAGAG	-0.181
CCGGCGGA	-0.22
CCAGGAAC	-0.144
ATGCGGGG	-0.305
CTCATTTA	0.172
CAATATTC	0.226
AACGGATT	0.0835
AGGTCCAA	-0.286
CAGGATAA	0.211
CCTCGGAG	-0.225
AGCCAGAA	-0.157
TCAAGGCA	-0.0735
GCAATGGC	-0.264
AGACAGTC	-0.169
AACTGAAG	-0.0971
TAGTCGCA	0.0954
ACTGTCCC	-0.0488
AAGAGGGC	-0.182

Sequence	PBM 8-mer E-score
CGAATGCG	-0.119
TAATAAAA	0.389
GCCAAAAC	-0.0792
CACACCCG	-0.157
CTCAGCCA	-0.283
AACGCTAT	0.0338
ACGATCCT	-0.173
CAGGGCCA	-0.181
CTGATTTC	-0.166
CCTGGAAC	-0.159
GGGTGCAC	-0.196
CCAGATCA	-0.131
GTCTCTCA	-0.195
ATAATACC	0.333
CGTCCGCC	-0.255
GATGCGGA	-0.0685
CCTGGCCA	-0.208
ATCGTCGA	-0.0341
GCTAGAAC	-0.0509
AGGTCAAC	-0.0391
GGTAATGA	-0.0124
GGGCTGCA	-0.11
GGCTGTAC	-0.12
ATCGACCC	-0.173
AAGGATGG	-0.00153

Sequence	PBM 8-mer E-score
AAATGTTA	0.319
CAAATTAG	0.18
GAGATCGC	-0.123
CATCCTGA	-0.222
CCATGGTA	-0.103
ACGGTGAG	-0.204
TACCGCAA	0.113
CCTCTGAG	-0.251
CCCCCAAA	-0.305
AGAAACGA	-0.0393
ATGCCCCG	-0.125
ACATCCCC	-0.295
ACACGTTG	-0.255
AAGCGGAG	-0.193
CCCATCTC	-0.155
CTCCGTAA	-0.0332
CGCGACAG	-0.0696
CGCACAGA	-0.099
CTCGAGAG	-0.187
GGATAACC	-0.118
AAGTTATC	0.256
CCTACTCA	-0.0563
CGTTTCCC	-0.091
AATGTACC	0.186
TGAACTAA	0.278

Sequence	PBM 8-mer E-score
GAGGCCCA	-0.232
AGCCCCTA	-0.331
GTAGGAGA	-0.127
AAAGACAG	-0.0362
CCCAGTAG	-0.122
GGCATAAA	0.0713
ACAGTGAA	-0.0365
GACCTGAC	-0.304
AGAGGGCG	-0.276
ACTATCAA	0.191
CCAGCCGA	0.0177
CGGAACTC	-0.0386
AATAGACC	0.00124
GATGTCAC	-0.11
ACCGTAAT	0.207
ATGAGAAC	-0.0281
ATCATGAC	0.0406
ACAAGCGG	-0.0943
CTTTTTAA	0.213
CGGCGTCA	-0.198
CTCTGCAG	-0.191
AAGATCTT	0.0451
CTCGTTTA	0.126
CGTTTCCA	-0.000895
CCCTTGAC	-0.224

Sequence	PBM 8-mer E-score
CAACTATG	0.273
CAGGACTA	-0.0646
CGATTTCA	-0.0753
GTAATCGA	0.0452
AGTGGCTA	-0.14
ACGAACAC	-0.032
TGGAAACA	0.0669
GAGATTCA	-0.0331
CCTAAAGA	0.0301
ATGTAAGC	0.0551
AGGCCTTA	0.0391
TATTATCA	0.404
CAATGACG	-0.195
GGATTTTA	0.112
CTACGTAG	-0.2
AAGCGTCT	-0.141
CATGCTTA	-0.0242
TCTAATCA	0.0903
AAATCCTG	0.0887
CACCGTAC	-0.145
CCATCACC	-0.173
GGTCGCAA	-0.00194
ATCACTTG	0.0666
GCGGGGGA	-0.135
ATATAGGA	0.278

Sequence	PBM 8-mer E-score
GCCTATCA	-0.0719
CGTATAAA	0.209
ATGTGATC	-0.0628
ATGGGTTC	-0.114
AGGGTATA	0.167
TCAAATAA	0.28
ATTTCTCA	0.182
CGGGGTAC	-0.206
CAGGTCGC	-0.173
ACTGTAGA	0.0986
AAGCTTTA	0.0937
CAGCGTAC	-0.225
CTCCTTTC	-0.176
AATGTCGC	-0.0326
GGGTCGAC	-0.124
CTCCGGCA	-0.336
GACCCAAC	-0.156
CCAAGGCA	-0.0594
ACCGTGTC	-0.152
ACACTTCC	0.194
CGCCGTAC	-0.289
GCATCTAC	0.0552
CTGCTCTC	-0.222
GACGACCC	-0.214
ACTCCGAG	0.0445

Sequence	PBM 8-mer E-score
ACTCAATG	-0.00467
ACGATTCT	-0.176
GTTTTATA	0.243
ACCTCGGG	-0.144
GAGGGTAA	0.0543
AACTCCCT	-0.0712
CATTTATC	0.241
ACAAAACC	0.0844
GACAGATC	-0.173
ACAGTTCT	0.112
CGAGCAAG	-0.218
TCTGCGAA	0.0169
GCGGTGAC	-0.202
TAAGGCCA	0.00955
CTACGCGC	-0.132
GCGATTGA	-0.0741
ACGTGTCA	-0.104
CCGTGTAA	0.0402
CTACTCAA	-0.156
AAGGCACC	-0.136
ACTCAGTA	0.118
GACTCAGC	-0.234
CCACAAGC	-0.204
CAACGCCG	-0.236
AACAGAAG	0.102

Sequence	PBM 8-mer E-score
GCGGGGCA	-0.178
CAGCTTTC	-0.151
AGTTAAAT	0.383
GTCAAGCA	-0.052
CGGTCTCA	-0.162
GTCCCTCA	-0.177
ACAGTAAG	0.107
ATCTCCAA	0.0232
CCGGAAGC	-0.257
TAAGTGGA	0.0662
AGTCGCTG	-0.0842
ATTCAACC	0.117
GCTACAAC	0.0964
TAGCGGGA	-0.138
TAACTGCA	0.24
CTACAATA	0.244
CGCTCGTA	-0.094
AAGTGAGA	-0.034
ATCATCAA	0.0305
